Activity change, negative = inhibition data for 33 molecules are collected here from PubChem BioAssay AID1745853 (National Center for Advancing Translational Sciences (NCATS), 2022).

Some of the results follow. These are further read-outs of the screen, such as a control signal, another cell line or another target. No call is given for them.

Common to all, as to assay: Primary Screen for Target Class Profiling of Small Molecule Inhibitors of Methyltransferases
Assay [1] concerns the target Glycine N-methyltransferase (Homo sapiens) (UniProt Q14749). Conditions: purified enzyme, MTase-Glo SAH luminescence; measured here: GNMT inhibition; at 40 µM; stronger effect = lower value. The gist of the method:
(§1)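 Each enzyme was reacted with SAM and its substrate, with compounds tested once at 40 uM; SAH formed was read by MTase-Glo luminescence.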

In assay [2] the target is Guanidinoacetate N-methyltransferase (Homo sapiens) (UniProt Q14353). Conditions: purified enzyme, MTase-Glo SAH luminescence; measured here: GAMT inhibition; at 40 µM; stronger effect = lower value. The gist of the method:
as §1

In assay [3] the target is Histamine N-methyltransferase (Homo sapiens) (UniProt P50135). The note with it: purified enzyme, MTase-Glo SAH luminescence; measured here: HNMT inhibition; at 40 µM; stronger effect = lower value. The method, boiled down: as §1
Assay [4] has as its target Nicotinamide N-methyltransferase (Homo sapiens) (UniProt P40261). The note with it: purified enzyme, MTase-Glo SAH luminescence; measured here: NNMT inhibition; at 40 µM; stronger effect = lower value. The gist of the method: as §1
Assay [5] deals with Phenylethanolamine N-methyltransferase (Homo sapiens) (UniProt P11086). Conditions: purified enzyme, MTase-Glo SAH luminescence; measured here: PNMT inhibition; at 40 µM; stronger effect = lower value. The gist of the method:
as §1
% is set by controls: 0 for no effect and ±100 for the full control effect.

Consider `COC(=O)C(Cc1c[nH]c2ccccc12)NC(=O)c1cc(-c2ccc(OC)c(OC)c2)oc1C` (stereo unspecified), for which the activity change, negative = inhibition was -9.34% in assay [1]; 4.9% in assay [2]; 3.04% in assay [3]; 5.77% in assay [4]; -2.26% in assay [5].

For the molecule `CCOc1ccc(S(=O)(=O)n2c(C)nc3ccccc32)cc1`, the activity change, negative = inhibition is 3.37% in assay [1]; 2.57% in assay [2]; -2.04% in assay [3]; -15.2% in assay [4]; -4.08% in assay [5].

Consider `COC[C@H]1CCCN1c1nc(CCN)nc2sc(C)c(C)c12`, for which the activity change, negative = inhibition is -2.83% in assay [1]; -4.69% in assay [2]; -21.7% in assay [3]; -22% in assay [4]; -7.99% in assay [5].

For the molecule `CC1(C(=O)NC2CCCC2)Cn2c(ccc2-c2ccccc2)C(=O)N1Cc1ccccc1Cl` (stereo unspecified), the activity change, negative = inhibition in assay [1] is -0.807%; in assay [2] it was 3.65%; in assay [3], 0.02%; in assay [4], -2.19%; in assay [5], 0.205%.

As to `C=C1C(OC(C)=O)CCC2(C)CC3(OC)OC(=O)C(C)=C3CC12` (stereo unspecified), the activity change, negative = inhibition in assay [1] was -3.95%; in assay [2] it was -11.4%; in assay [3], -7.02%; in assay [4], -24.1%; in assay [5], -1.8%.

On to `COc1ccc(Nc2nc3c(S(=O)(=O)c4ccc(C)cc4)nnn3c3ccccc23)cc1`, for which the activity change, negative = inhibition in assay [1] was -5.84%; in assay [2], 0.565%; in assay [3], 6.48%; in assay [4], -3.73%; in assay [5], -3.69%.

For the molecule `COCCCNC(=O)C1(C)Cn2nc(-c3ccccc3)cc2C(=O)N1c1ccccc1C` (stereo unspecified), the activity change, negative = inhibition in assay [1] is 1.29%; in assay [2], 1.67%; in assay [3], 3.44%; in assay [4], 1.45%; in assay [5] it was -2.35%.

For `CC(C)CCN1C(=O)c2ccc(-c3ccco3)n2CC1(C)C(=O)NC1CCC(C)CC1` (stereo unspecified), the activity change, negative = inhibition in assay [1] was -18.3%; in assay [2], 0.567%; in assay [3], -1.36%; in assay [4] it was -21.2%; in assay [5] it was -1.21%.

As for `COc1ccc2cc3n(c2c1)CC(C)(C(=O)NC1CCCC1)N(Cc1ccc(Cl)cc1)C3=O` (stereo unspecified), the activity change, negative = inhibition in assay [1] was -3.2%; in assay [2] it was 2.75%; in assay [3], -1.8%; in assay [4], -6.57%; in assay [5], -9.31%.

For `CC1CCN(CCCNC(=O)CCc2nnc3n(Cc4ccccc4)c(=O)c4ccccc4n23)CC1`, the activity change, negative = inhibition was -9.07% in assay [1]; 0% in assay [2]; -54.9% in assay [3]; 7.53% in assay [4]; -0.532% in assay [5].

Take `Cc1ccc(CNC(=O)Cn2nc3n(CC(C)C)c(=O)c4ccccc4n3c2=O)cc1`: the activity change, negative = inhibition in assay [1] is -1.54%; in assay [2], 1.9%; in assay [3], -2%; in assay [4], -6.82%; in assay [5] it was -5.78%.

Regarding `CC(C)Cn1c(=O)c2ccccc2n2c(SCC(=O)N3CCN(c4ccc(F)cc4)CC3)nnc12`, the activity change, negative = inhibition in assay [1] was -0.799%; in assay [2], 0%; in assay [3], 6.9%; in assay [4], -11.3%; in assay [5], 4.65%.

Regarding `CC[C@H](CO)Nc1nc(Nc2cccc(-c3ccccn3)c2)c2ncn(C(C)C)c2n1`, the activity change, negative = inhibition is -14.4% in assay [1]; -4.39% in assay [2]; -26.2% in assay [3]; -30.8% in assay [4]; -19.3% in assay [5].

For the molecule `Cn1c(=O)n(C)c2cc(S(=O)(=O)NCc3ccc4c(c3)OCO4)ccc21`, the activity change, negative = inhibition is -1.72% in assay [1]; 6.84% in assay [2]; -4.32% in assay [3]; -4.95% in assay [4]; -4.74% in assay [5].

Regarding `CNC(=O)c1cccc(-c2ccccc2COc2ccc(CCOC)cc2)n1`, the activity change, negative = inhibition in assay [1] is -5.32%; in assay [2], 0.983%; in assay [3], -0.953%; in assay [4], -7.63%; in assay [5] it was 11.5%.

Consider `CN(Cc1cccc(N2CCN(C(c3ccccc3)c3ccccc3)CC2)c1)[S+](C)(=O)[O-]`, for which the figures for the activity change, negative = inhibition in assay [2], in assay [4] and in assay [5] were -10.4%, -18.6% and 2.87%, respectively.

As to `COc1ccc(NC(=O)N2CCn3cccc3C2C(C)C)cc1` (stereo unspecified), the activity change, negative = inhibition in assay [1] came out at 17.1%; in assay [2], 2.22%; in assay [3], 10.1%; in assay [4], 9.64%; in assay [5], 9.72%.

Turning to `Cc1nc(CN(C)c2ncnc3ccc(-c4ccc5c(c4)OCO5)cc23)cs1`, the activity change, negative = inhibition in assay [2] was -86.3%; in assay [4], -91%; in assay [5] it was -91.7%.

As for `COc1cc(NC(=O)Cn2nc3n(Cc4ccc(C)cc4)c(=O)c4ccccc4n3c2=O)cc(OC)c1`, the activity change, negative = inhibition was 5.48% in assay [1]; 10.2% in assay [2]; 8.93% in assay [3]; 1.13% in assay [4]; 4.35% in assay [5].

In the case of `COc1cccc(CN2C(=O)c3c(NC(C)=O)c4ccccc4n3CC2(C)C(=O)NCCC(C)C)c1` (stereo unspecified), the activity change, negative = inhibition in assay [1] was 4.97%; in assay [2] it was 2.95%; in assay [3], 4.8%; in assay [4], -1.7%; in assay [5], 3.92%.

As for `CCc1ccc(-c2cc3n(n2)CC(C)(C(=O)NC2CCCCC2)N(CCN2CCOCC2)C3=O)cc1` (stereo unspecified), the activity change, negative = inhibition in assay [1] was 5.87%; in assay [2] it was 0%; in assay [3] it was 6.16%; in assay [4], 8.58%; in assay [5], -14.7%.

With `Cn1ccnc1CN1C[C@@H](F)[C@@H](OCc2nc3ccccc3[nH]2)C1`, the activity change, negative = inhibition in assay [1] was -6.48%; in assay [2], -10.9%; in assay [3], -4.2%; in assay [4], -17%; in assay [5] it was -10.5%.

Consider `CC1(C(=O)NC2CCCCCC2)Cn2c(cc3ccccc32)C(=O)N1CCN1CCOCC1` (stereo unspecified), for which the activity change, negative = inhibition is 0.661% in assay [1]; 5.36% in assay [2]; 3.86% in assay [3]; -0.776% in assay [4]; -2.42% in assay [5].

In the case of `CCC1(N2CCN(C(=O)Nc3cc(C)ccc3OC)CC2)CCN(C(=O)C(C)C)C1` (stereo unspecified), the activity change, negative = inhibition in assay [1] was -7.82%; in assay [2] it was -6.96%; in assay [3], -20.3%; in assay [4] it was -11%; in assay [5], -0.995%.

`CC(=O)O[C@@H]1C[C@]2(C)[C@@]3(CCC4[C@@]5(C)CC[C@H](O[C@@H]6O[C@H](C(=O)O)[C@@H](O)[C@H](O[C@@H]7O[C@H](CO)[C@H](O)[C@H](O)[C@H]7O[C@@H]7O[C@@H](C)[C@H](O)[C@@H](O)[C@H]7O[C@@H]7OC[C@](O)(CO)[C@H]7O)[C@H]6O[C@@H]6O[C@H](CO)[C@H](O)[C@H](O)[C@H]6O)C(C)(C)C5CC[C@]42C)O[C@@H](O)[C@]12C3CC(C)(C)[C@@H](OC(=O)/C=C/c1ccc(O)c(O)c1)[C@@H]2OC(=O)/C=C/c1ccccc1` (stereo partly specified): the activity change, negative = inhibition in assay [1] was 1.51%; in assay [2], 4.77%; in assay [3], 6.75%; in assay [4], -9.5%; in assay [5], 7.47%.

As to `O=C(CCc1nnc2n(Cc3ccc(Cl)cc3)c(=O)c3ccccc3n12)NCc1ccc2c(c1)OCO2`, the activity change, negative = inhibition is 1.46% in assay [1]; 3.42% in assay [2]; 1.98% in assay [3]; 9.91% in assay [4]; -1.35% in assay [5].

Regarding `CC1OC(OC2C(CO)OC(OCC3OC(OC(=O)C45CCC(C)(C)CC4C4=CCC6C7(C)CCC(OC8OC(CO)C(O)C(OC9OC(CO)C(O)C(O)C9O)C8O)C(C)(C)C7CCC6(C)C4(C)CC5)C(O)C(O)C3O)C(O)C2O)C(O)C(O)C1OC1OC(CO)C(O)C(O)C1O` (stereo unspecified), the activity change, negative = inhibition in assay [1] is 0.484%; in assay [2], 6.49%; in assay [3] it was 8.62%; in assay [4], -6.2%; in assay [5] it was -1.63%.

As for `CC(=O)Nc1ccc(S(=O)(=O)Nc2ccc3c(c2)n(C)c(=O)n3C)c(C)c1`, the activity change, negative = inhibition in assay [1] was 1.59%; in assay [2], 2.73%; in assay [3], -0.024%; in assay [4] it was 3.52%; in assay [5], -9.66%.

For `CC(C)Cn1c(=O)c2ccccc2n2c(SCc3c(F)cccc3Cl)nnc12`, the activity change, negative = inhibition in assay [1] is -1.21%; in assay [2], 4.69%; in assay [3], 1.7%; in assay [4] it was -8.66%; in assay [5], -4.05%.

With `O=C(CCNc1c(-c2cccc(F)c2)nc2cnccn12)NCc1ccc(Cl)cc1`, the activity change, negative = inhibition in assay [1] was -15.9%; in assay [2], -8.79%; in assay [3], -8.97%; in assay [4], -21.1%; in assay [5] it was -8.61%.

Consider `Cn1cc(-c2cnc3ccc4ccc(CS(=O)(=O)NCc5ccccn5)cc4c(=O)c3c2)cn1`, for which the activity change, negative = inhibition is -11.6% in assay [1]; -9.65% in assay [2]; 2.51% in assay [3]; -19.4% in assay [4]; -52.6% in assay [5].

For `CC(C)=CCC[C@](C)(O[C@@H]1O[C@H](CO)[C@@H](O)[C@H](O)[C@H]1O)[C@H]1CC[C@]2(C)[C@@H]1[C@H](O)CC1[C@@]3(C)CC[C@H](O)C(C)(C)C3[C@@H](O[C@@H]3O[C@H](CO)[C@@H](O)[C@H](O)[C@H]3O)C[C@]12C` (stereo partly specified), the activity change, negative = inhibition is 0% in assay [1]; 4.97% in assay [2]; 12.6% in assay [3]; -6.52% in assay [4]; 0.447% in assay [5].

For `COc1cc(O[C@@H]2O[C@H](CO[C@H]3OC[C@](O)(CO)[C@H]3O)[C@@H](O)[C@H](O)[C@H]2O)cc(OC)c1O`, the activity change, negative = inhibition in assay [1] was 2.53%; in assay [2], 1.39%; in assay [3] it was 11.2%; in assay [4] it was -10.8%; in assay [5], -7.3%.
